From paper PMC7383879, “HSI2/VAL1 and HSL1/VAL2 function redundantly to repress DOG1 expression in Arabidopsis seeds and seedlings”
Results are given in words; binding and its absence hold for the method and conditions named. For some of these results: In cells and extracts the contact can be indirect. Where a sequence is shown, tags or fusion partners need not be part of it.

T1: HSI2‐LIKE1 (HSL1), BiFC fusion (Arabidopsis thaliana) (UniProt Q5CCK4)
T1 sequence: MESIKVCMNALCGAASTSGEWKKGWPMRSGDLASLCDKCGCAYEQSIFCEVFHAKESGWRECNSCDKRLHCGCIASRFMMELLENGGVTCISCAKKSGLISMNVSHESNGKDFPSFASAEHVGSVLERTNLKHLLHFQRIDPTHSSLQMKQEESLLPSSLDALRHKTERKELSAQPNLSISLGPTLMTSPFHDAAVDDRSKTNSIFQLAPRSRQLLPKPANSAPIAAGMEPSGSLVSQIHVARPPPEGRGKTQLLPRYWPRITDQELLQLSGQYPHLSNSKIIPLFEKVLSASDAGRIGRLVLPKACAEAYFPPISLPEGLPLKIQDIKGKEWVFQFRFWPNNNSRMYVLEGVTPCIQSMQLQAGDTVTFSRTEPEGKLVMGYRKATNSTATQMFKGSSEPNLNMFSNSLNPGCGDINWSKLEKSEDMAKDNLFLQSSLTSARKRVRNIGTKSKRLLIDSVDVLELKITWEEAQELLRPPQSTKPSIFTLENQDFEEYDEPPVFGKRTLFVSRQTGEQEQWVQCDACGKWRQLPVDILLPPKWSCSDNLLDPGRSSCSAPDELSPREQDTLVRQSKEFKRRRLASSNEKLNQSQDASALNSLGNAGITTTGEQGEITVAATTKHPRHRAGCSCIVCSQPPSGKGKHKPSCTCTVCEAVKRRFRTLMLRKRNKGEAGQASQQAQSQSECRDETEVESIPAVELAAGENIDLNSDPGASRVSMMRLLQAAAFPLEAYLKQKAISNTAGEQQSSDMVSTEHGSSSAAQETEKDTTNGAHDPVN

T2: HSL1, full length, yeast two-hybrid fusion (Arabidopsis thaliana) (UniProt Q5CCK4)
T2 sequence: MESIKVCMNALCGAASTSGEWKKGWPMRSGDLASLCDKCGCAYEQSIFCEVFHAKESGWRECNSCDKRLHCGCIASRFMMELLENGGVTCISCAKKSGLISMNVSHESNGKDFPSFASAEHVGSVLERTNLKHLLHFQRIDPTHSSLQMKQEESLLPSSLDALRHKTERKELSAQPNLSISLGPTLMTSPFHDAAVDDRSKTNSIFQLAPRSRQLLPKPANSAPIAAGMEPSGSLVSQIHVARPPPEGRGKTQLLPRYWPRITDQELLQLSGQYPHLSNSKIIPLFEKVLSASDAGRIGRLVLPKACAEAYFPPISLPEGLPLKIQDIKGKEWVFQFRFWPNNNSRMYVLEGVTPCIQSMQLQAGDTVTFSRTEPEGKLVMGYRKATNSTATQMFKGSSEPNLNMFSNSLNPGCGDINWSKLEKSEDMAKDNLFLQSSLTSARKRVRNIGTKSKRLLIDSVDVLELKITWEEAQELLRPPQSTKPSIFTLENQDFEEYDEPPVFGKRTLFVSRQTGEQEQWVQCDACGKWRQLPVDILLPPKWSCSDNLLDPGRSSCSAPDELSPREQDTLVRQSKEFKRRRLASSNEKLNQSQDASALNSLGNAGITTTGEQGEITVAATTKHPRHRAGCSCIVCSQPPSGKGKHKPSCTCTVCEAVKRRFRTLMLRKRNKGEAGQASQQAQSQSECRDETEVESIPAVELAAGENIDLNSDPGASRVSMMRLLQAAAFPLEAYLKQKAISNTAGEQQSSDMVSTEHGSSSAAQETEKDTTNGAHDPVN

T3: HSI2, full length, yeast two-hybrid fusion (Arabidopsis thaliana) (UniProt Q8W4L5)
T3 sequence: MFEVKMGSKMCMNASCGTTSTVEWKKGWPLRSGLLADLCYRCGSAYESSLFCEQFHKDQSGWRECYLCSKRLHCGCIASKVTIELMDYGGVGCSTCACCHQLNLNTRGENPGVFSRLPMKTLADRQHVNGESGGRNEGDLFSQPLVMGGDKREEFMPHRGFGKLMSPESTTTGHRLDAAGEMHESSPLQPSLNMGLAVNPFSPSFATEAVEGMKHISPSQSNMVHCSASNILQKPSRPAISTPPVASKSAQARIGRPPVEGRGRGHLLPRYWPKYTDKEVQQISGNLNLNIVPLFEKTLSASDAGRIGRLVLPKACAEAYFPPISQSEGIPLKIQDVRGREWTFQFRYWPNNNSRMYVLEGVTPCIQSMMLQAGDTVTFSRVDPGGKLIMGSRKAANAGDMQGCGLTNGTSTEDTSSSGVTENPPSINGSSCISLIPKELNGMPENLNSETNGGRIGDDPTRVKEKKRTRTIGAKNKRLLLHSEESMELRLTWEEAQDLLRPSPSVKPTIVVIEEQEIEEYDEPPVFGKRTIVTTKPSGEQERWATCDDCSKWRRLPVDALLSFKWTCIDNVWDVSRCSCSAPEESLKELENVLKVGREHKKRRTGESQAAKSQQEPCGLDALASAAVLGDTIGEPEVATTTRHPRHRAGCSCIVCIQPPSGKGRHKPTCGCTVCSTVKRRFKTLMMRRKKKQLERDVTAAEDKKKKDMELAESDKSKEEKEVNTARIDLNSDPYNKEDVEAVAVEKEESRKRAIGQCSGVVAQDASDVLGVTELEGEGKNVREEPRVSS

B1: HSI2mPHD (HSI2 with eight conserved amino acids of the PHD domain substituted), BiFC fusion (protein, UniProt Q8W4L5 1-790)
chain: MFEVKMGSKMCMNASCGTTSTVEWKKGWPLRSGLLADLSYRSGSAYESSLFCEQFHKDQSGWRESYLSSKRLLCGSIASKVTIELMDYGGVGSSTSACCHQLNLNTRGENPGVFSRLPMKTLADRQHVNGESGGRNEGDLFSQPLVMGGDKREEFMPHRGFGKLMSPESTTTGHRLDAAGEMHESSPLQPSLNMGLAVNPFSPSFATEAVEGMKHISPSQSNMVHCSASNILQKPSRPAISTPPVASKSAQARIGRPPVEGRGRGHLLPRYWPKYTDKEVQQISGNLNLNIVPLFEKTLSASDAGRIGRLVLPKACAEAYFPPISQSEGIPLKIQDVRGREWTFQFRYWPNNNSRMYVLEGVTPCIQSMMLQAGDTVTFSRVDPGGKLIMGSRKAANAGDMQGCGLTNGTSTEDTSSSGVTENPPSINGSSCISLIPKELNGMPENLNSETNGGRIGDDPTRVKEKKRTRTIGAKNKRLLLHSEESMELRLTWEEAQDLLRPSPSVKPTIVVIEEQEIEEYDEPPVFGKRTIVTTKPSGEQERWATCDDCSKWRRLPVDALLSFKWTCIDNVWDVSRCSCSAPEESLKELENVLKVGREHKKRRTGESQAAKSQQEPCGLDALASAAVLGDTIGEPEVATTTRHPRHRAGCSCIVCIQPPSGKGRHKPTCGCTVCSTVKRRFKTLMMRRKKKQLERDVTAAEDKKKKDMELAESDKSKEEKEVNTARIDLNSDPYNKEDVEAVAVEKEESRKRAIGQCSGVVAQDASDVLGVTELEGEGKNVREEPRVSS
B2: HSI2mPHD, yeast two-hybrid fusion (protein, UniProt Q8W4L5 1-790)
chain: MFEVKMGSKMCMNASCGTTSTVEWKKGWPLRSGLLADLSYRSGSAYESSLFCEQFHKDQSGWRESYLSSKRLLCGSIASKVTIELMDYGGVGSSTSACCHQLNLNTRGENPGVFSRLPMKTLADRQHVNGESGGRNEGDLFSQPLVMGGDKREEFMPHRGFGKLMSPESTTTGHRLDAAGEMHESSPLQPSLNMGLAVNPFSPSFATEAVEGMKHISPSQSNMVHCSASNILQKPSRPAISTPPVASKSAQARIGRPPVEGRGRGHLLPRYWPKYTDKEVQQISGNLNLNIVPLFEKTLSASDAGRIGRLVLPKACAEAYFPPISQSEGIPLKIQDVRGREWTFQFRYWPNNNSRMYVLEGVTPCIQSMMLQAGDTVTFSRVDPGGKLIMGSRKAANAGDMQGCGLTNGTSTEDTSSSGVTENPPSINGSSCISLIPKELNGMPENLNSETNGGRIGDDPTRVKEKKRTRTIGAKNKRLLLHSEESMELRLTWEEAQDLLRPSPSVKPTIVVIEEQEIEEYDEPPVFGKRTIVTTKPSGEQERWATCDDCSKWRRLPVDALLSFKWTCIDNVWDVSRCSCSAPEESLKELENVLKVGREHKKRRTGESQAAKSQQEPCGLDALASAAVLGDTIGEPEVATTTRHPRHRAGCSCIVCIQPPSGKGRHKPTCGCTVCSTVKRRFKTLMMRRKKKQLERDVTAAEDKKKKDMELAESDKSKEEKEVNTARIDLNSDPYNKEDVEAVAVEKEESRKRAIGQCSGVVAQDASDVLGVTELEGEGKNVREEPRVSS

Columns and labels:
[1] = target: HSI2mPHD (HSI2 with eight conserved amino acids of the PHD domain substituted), BiFC fusion (Arabidopsis thaliana) (UniProt Q8W4L5); assay: split reporter; BiFC: nEYFP and cEYFP fusions, Agrobacterium GV2260 co-infiltrated into tobacco (N. benthamiana) leaves; YFP fluorescence by confocal microscopy after 2 d
[2] = target: T1, HSI2‐LIKE1 (HSL1), BiFC fusion (Arabidopsis thaliana); assay: as above
[3] = target: T2, HSL1, full length, yeast two-hybrid fusion (Arabidopsis thaliana); assay: two-hybrid; Matchmaker GAL4-based two-hybrid system 3, pGADT7 and pGBKT7, yeast AH109; growth on minimal medium -Leu/-Trp/-His/-Ade
[4] = target: T3, HSI2, full length, yeast two-hybrid fusion (Arabidopsis thaliana); assay: as above

Binder	binding [1]	binding [2]	binding [3]	binding [4]
B1	no binding	no binding		
B2			no binding	no binding
